Columns and labels:
[1] = tested on: CD4 T cells of healthy donors (HD); assay: IL-4 induced PStat6 nuclear translocation; type: cell-based, human
Experimental: FIG. 11: PLA2sGIB inhibits IL-4 induced PStat6 nuclear translocation in CD4 T cells of healthy donors (HD): Resting CD4 T cells purified from 4 healthy donors were treated for 30 minutes at 37° C. with 3% or 1% of plasma from 5 VP (VP63, VP68, VP69, VP74 and VP75) and from 3 HD used as control. When indicated they were stimulated with 2 nM IL-4 for 15 minutes at 37° C. The percentage of cells positive for nuclear PStat6, with mean and SD, in whole CD4 T cells, before (blue points) and after IL-2 stimulation (red points) are shown. Intracellular localisation of PStat6 was observed using Laser Scanning Confocal Microscopy (LSM 700, Zeiss) after indirect staining with rabbit anti human PStat6 (pY694) followed by goat anti rabbit IgG-AF488. Total CD4 T cells were stained with mouse anti human a-Tubulin followed by goat anti mouse IgG-AF647.
IL-7 and IL-2 are members of the gamma c cytokine family. To confirm that unresponsiveness to this cytokine may be linked to gamma c, we tested the response to IL-4. IL-4 response was measured by following the IL-4 induced NT of pSTAT6 (FIG. 11).

[2] = tested on: CD4 T cells of healthy donors (HD); assay: IL-2 induced PStat5 nuclear translocation; type: cell-based, human
Experimental: FIG. 10: PLA2sGIB inhibits IL-2 induced PStat5 nuclear translocation in CD4 T cells of healthy donors (HD): Resting CD4 T cells purified from 4 healthy donors were treated for 30 minutes at 37° C. with 3% or 1% of plasma from 5 VP (VP63, VP68, VP69, VP74 and VP75) and from 3 HD used as control. When indicated they were stimulated with 2 nM IL-2 for 15 minutes at 37° C. The percentage of cells positive for nuclear PStat5, with mean and SD, in whole CD4 T cells (a) and in CD4+ CD25+ T cells (b), before (blue points) and after IL-2 stimulation (red points) are shown. Intracellular localisation of PStat5 was observed using Laser Scanning Confocal Microscopy (LSM 700, Zeiss) after indirect staining with rabbit anti human PStat5 (pY694) followed by donkey anti rabbit IgG-Die light 405. Total CD4 T cells were stained with goat anti human b-Tubulin followed by donkey anti goat IgG-AF555. CD25+CD4 T cells were targeted with a mouse anti human CD25 followed by donkey anti mouse IgG-AF488.

B1: PLA2 GIB: secreted phospholipase A2 group IB; in Example 9 applied as plasma of viremic patients (protein, UniProt P04054 23-148, looked up)
Phospholipase A2: AVWQFRKMIKCVIPGSDPFLEYNNYGCYCGLGGSGTPVDELDKCCQTHDNCYDQAKKLDSCKFLLDNPYTHTYSYSCSGSAITCSSKNKECEAFICNCDRNAAICFSKAPYNKAHKNLDTKKYCQS
modifications: in patient plasma
For B1, which “inhibition of IL-4 response (IL-4 induced NT of pSTAT6)” value ([1]; 1% plasma) is on record?
The value was “greatly”.

What about the “inhibition of IL-4 response (IL-4 induced NT of pSTAT6)” value ([1]; 3% plasma) of the same molecule?
Its value is “completely”.

What about the “inhibition of IL-2-induced NT pSTAT5” value ([2]; 1% plasma of viremic patient, whole CD4 T cells) of the same molecule?
Its value is “highly significant”.

And the “inhibition of IL-2-induced NT pSTAT5” value ([2]; 1% plasma of viremic patients, CD4+ CD25+ T reg lymphocytes)?
Its value is “completely inhibited”.

And the “inhibition of IL-2-induced NT pSTAT5” value ([2]; 3% plasma of viremic patient, whole CD4 T cells)?
The value was “total”.
